Measured values published in publication PMC11109194.
No constants are given. Whether binding was seen depends on the method and setting. In cells and extracts the contact can be indirect. Some entries that bind do so weakly or less than the wild type. Sequences can lack the tags named with a protein.

Chains of the proteins cited; added tags and fusions are not shown.
UniProt Q62406: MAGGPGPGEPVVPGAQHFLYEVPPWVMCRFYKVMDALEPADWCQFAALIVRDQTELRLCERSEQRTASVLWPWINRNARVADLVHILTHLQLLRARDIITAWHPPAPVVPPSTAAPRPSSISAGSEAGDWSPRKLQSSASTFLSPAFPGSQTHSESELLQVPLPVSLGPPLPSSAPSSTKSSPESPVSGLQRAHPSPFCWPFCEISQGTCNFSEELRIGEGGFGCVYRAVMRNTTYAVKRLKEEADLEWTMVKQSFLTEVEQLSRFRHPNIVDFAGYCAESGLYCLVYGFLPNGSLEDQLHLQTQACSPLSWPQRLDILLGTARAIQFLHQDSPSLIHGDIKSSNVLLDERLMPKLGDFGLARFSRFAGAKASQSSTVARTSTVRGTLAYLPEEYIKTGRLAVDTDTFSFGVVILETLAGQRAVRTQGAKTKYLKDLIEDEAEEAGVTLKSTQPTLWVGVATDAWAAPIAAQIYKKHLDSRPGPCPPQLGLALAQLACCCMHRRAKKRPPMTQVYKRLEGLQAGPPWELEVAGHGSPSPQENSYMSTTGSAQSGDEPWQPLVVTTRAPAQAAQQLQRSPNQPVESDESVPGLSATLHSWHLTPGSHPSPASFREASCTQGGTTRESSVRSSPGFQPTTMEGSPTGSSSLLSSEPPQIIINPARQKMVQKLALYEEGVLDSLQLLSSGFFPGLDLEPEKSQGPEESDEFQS

How the values were obtained:
[1] = target: T1, HA-TAK1 (transforming growth factor β-activated kinase) (UniProt Q62073); test: co-IP; supplementary panels (Fig. S7b-d, S8a, S8c-d, S9a-b) whose legends were not shown; cells and tags not stated; with or without TIGAR overexpression
T1 sequence: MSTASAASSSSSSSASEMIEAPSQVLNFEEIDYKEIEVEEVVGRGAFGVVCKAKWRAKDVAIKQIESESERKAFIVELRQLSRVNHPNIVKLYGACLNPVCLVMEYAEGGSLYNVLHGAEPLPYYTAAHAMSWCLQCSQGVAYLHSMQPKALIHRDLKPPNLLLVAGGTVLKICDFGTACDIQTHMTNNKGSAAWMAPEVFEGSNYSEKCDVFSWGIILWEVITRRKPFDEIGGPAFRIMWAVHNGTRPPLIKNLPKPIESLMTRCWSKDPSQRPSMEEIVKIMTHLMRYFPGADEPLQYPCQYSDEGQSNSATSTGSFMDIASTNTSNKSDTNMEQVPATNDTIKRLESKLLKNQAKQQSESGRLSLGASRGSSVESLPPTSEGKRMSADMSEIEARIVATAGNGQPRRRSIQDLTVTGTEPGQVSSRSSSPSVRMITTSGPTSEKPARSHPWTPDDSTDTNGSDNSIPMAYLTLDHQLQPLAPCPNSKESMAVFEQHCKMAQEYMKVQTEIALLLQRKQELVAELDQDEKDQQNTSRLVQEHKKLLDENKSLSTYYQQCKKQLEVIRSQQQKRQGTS

[2] = target: T2, HA-TRAF6 (tumor necrosis factor receptor-associated factor 6) (UniProt P70196); test: as above
T2 sequence: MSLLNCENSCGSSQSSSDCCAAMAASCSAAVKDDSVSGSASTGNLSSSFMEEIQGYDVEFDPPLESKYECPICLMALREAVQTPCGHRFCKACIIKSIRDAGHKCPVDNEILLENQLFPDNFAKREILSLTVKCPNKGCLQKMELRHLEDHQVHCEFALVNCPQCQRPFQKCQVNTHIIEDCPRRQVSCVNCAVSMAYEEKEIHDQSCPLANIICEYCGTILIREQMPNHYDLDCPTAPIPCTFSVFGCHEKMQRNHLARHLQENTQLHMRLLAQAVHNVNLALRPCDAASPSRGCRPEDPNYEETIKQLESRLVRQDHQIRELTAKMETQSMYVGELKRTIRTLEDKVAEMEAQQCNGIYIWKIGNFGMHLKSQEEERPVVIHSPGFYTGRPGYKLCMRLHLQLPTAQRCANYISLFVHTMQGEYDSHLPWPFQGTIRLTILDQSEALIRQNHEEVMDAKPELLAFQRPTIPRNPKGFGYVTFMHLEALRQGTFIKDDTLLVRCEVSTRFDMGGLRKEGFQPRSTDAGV

TRAF6 (332–530) = target: T3, TRAF6 (332–530) (UniProt P70196); test: co-IP; HEK293 cells co-transfected with tagged plasmids; lysate incubated with the indicated antibody overnight at 4 °C, protein A/G plus agarose beads, western blot; in some panels a third protein co-expressed, or cells incubated with 5Z-7-OX (0.1, 0.3 or 1 mM, 12 h)
T3 sequence: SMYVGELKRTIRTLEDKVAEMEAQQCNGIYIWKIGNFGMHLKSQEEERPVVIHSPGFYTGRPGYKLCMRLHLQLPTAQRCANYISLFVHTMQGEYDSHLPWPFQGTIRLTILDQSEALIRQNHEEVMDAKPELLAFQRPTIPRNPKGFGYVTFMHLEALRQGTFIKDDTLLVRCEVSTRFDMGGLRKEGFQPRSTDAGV

[3] = target: T4, His-TAK1 (transforming growth factor β-activated kinase) (UniProt Q62073); test: as above
T4 sequence: T1 sequence

[4] = target: interleukin 1 receptor-associated kinase 1 (IRAK1) (UniProt Q62406); test: as above
[5] = target: T2, HA-TRAF6 (tumor necrosis factor receptor-associated factor 6); test: as above
[6] = target: T5, TGF-β activated kinase 1 binding protein 2 (TAB2) (UniProt Q99K90); test: as above
T5 sequence: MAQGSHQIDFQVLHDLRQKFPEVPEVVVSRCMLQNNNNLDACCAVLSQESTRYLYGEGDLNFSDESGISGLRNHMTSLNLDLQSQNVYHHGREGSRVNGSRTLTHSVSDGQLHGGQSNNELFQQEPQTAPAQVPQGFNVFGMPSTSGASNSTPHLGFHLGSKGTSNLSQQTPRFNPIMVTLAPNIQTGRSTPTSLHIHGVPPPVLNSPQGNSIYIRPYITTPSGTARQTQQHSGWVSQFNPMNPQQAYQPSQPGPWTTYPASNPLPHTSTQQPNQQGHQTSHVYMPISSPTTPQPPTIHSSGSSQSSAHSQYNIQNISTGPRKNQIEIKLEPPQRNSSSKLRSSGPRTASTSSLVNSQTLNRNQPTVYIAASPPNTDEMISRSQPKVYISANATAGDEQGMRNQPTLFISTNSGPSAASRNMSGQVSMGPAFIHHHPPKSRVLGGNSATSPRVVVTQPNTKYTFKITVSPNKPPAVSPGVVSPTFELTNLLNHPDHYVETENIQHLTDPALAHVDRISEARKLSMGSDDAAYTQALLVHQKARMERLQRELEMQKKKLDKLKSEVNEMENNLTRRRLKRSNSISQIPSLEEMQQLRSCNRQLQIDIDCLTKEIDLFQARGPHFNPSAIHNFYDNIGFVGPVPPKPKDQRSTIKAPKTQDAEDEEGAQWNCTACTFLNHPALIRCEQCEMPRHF

binding [1]: binds
binding (TRAF6 (332–530)): binds
binding [3]: binds
binding [4]: no binding
binding [6]: no binding
B1: Flag-TIGAR (TP53-induced glycolysis and apoptosis regulator) (protein, UniProt Q8BZA9 1-269)
chain: MPRFALTVIRHGETRLNKEKIIQGQGVDAPLSETGFRQAAAAGQFLSNVQFTHAFSSDLTRTKQTIHGILEKSRFCKDMAVKYDSRLRERMYGVAEGKPLSELRAMAKAAGEECPMFTPPGGETVEQVKMRGKDFFDFICQLILGKAGQRESVLPGAPGSGLESSLAEVFPVGKHGSLGANPKGGTLGLAASILVVSHGAYMRSLFGYFLSDLRCSLPGARDKLELSSITPNTGISVFIIDCEEARQPSIQCVCMNLQEHLNGVTEKQH
binding [2]: binds
binding [5]: binds
